{"source": "PubChem BioAssay AID1259418", "about": "(Broad Institute, 2018)", "note": "Screen size: about 3,400 compounds; about 840 (25%) were called active. Inconclusive results, whose numbers are uncertain, are shown with a selection of clear calls.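 How the source made its calls: active means fitted half-maximal concentration of signal decrease at or below twice the sample's top tested concentration; inconclusive means flat curve between -70 and -30 percent, or poor fit; inactive means flat within 30 percent, signal rise, or potency above limit.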", "data": [{"assay": "T. gondii growth inhibition with IFN-gamma, dose response, cell-based, ME49Luc, HeLa, luciferase, 72 h (AID 1259418)", "conditions": "T. gondii ME49Luc in IFN-y HeLa, hits give low values, -100% = high-dose IFN-γ control wells; at 19.5 µM unless noted", "values": [{"smiles": "CCCCC(=O)Nc1ccc(-c2nc(-c3ccc(C)cc3C)co2)cc1", "max activity": "inactive: 37.3% [at 10 µM]"}, {"smiles": "Cc1cccc(C(=O)Nc2c(C(=O)N3CCCC3)[nH]c3ccc(C)cc23)c1", "max activity": "inconclusive: -39.3% [at 0.68 µM]"}, {"smiles": "CCCNC(=O)N1CC(=O)N2[C@H](C1)[C@@H](c1ccc(C#Cc3cccc(OC)c3)cc1)[C@@H]2CO", "max activity": "inconclusive: -67.1%"}, {"smiles": "O=S(=O)(c1ccccc1F)N1CC[C@@H]2[C@@H](CO)Nc3ccc(C4=CCCCC4)cc3[C@@H]21", "max activity": "inactive: 37.4% [at 10 µM]"}, {"smiles": "CCc1ccccc1NC(=O)Nc1ccc(-c2nc(-c3ccccc3)co2)cc1", "max activity": "inactive: 13.1% [at 5 µM]"}, {"smiles": "O=C(C[C@@H]1CC[C@@H]2[C@H](COC[C@H](O)CN2Cc2ccc3c(c2)OCO3)O1)N1CCCCC1", "max activity": "inactive: 28.4%"}, {"smiles": "O=C(CC1N=C2c3ccccc3N=C(SCc3ccccc3F)N2C1=O)NCc1ccc2c(c1)OCO2", "note": "(configuration not stated)", "max activity": "inconclusive: 41.6% [at 1.35 µM]"}, {"smiles": "Cc1ccc2c(c1)cc(S(=O)(=O)c1ccccc1)c(=O)n2CC(=O)NCc1ccccc1Cl", "max activity": "inactive: 7.82% [at 0.68 µM]"}, {"smiles": "CC(C)c1ccc(NS(=O)(=O)c2cc3c4c(c2)CCC(=O)N4CCC3)cc1", "max activity": "inconclusive: -40.7% [at 10 µM]"}, {"smiles": "COc1cccc(-c2nc3c(s2)CN(S(=O)(=O)c2cccs2)CC3)c1", "max activity": "inconclusive: 115% [at 5 µM]"}, {"smiles": "Cc1ccc(C(=O)N2CCC(C(=O)NCCc3csc(-c4ccccc4)n3)CC2)cc1C", "max activity": "inconclusive: -27.7% [at 0.68 µM]"}, {"smiles": "Cc1nc(CCNC(=O)[C@H]2CCCN2C(=O)c2ccccc2Cl)cs1", "max activity": "inactive: 13.6% [at 0.35 µM]"}, {"smiles": "COc1ccc(OC)c(S(=O)(=O)Nc2ccc(-c3nc(-c4ccc(C)cc4C)co3)cc2)c1", "max activity": "inconclusive: -11.3% [at 1.35 µM]"}, {"smiles": "Cc1ccc(-c2coc(-c3ccc(NS(=O)(=O)c4ccc5c(c4)n(C)c(=O)n5C)cc3)n2)c(C)c1", "max activity": "inconclusive: -26.5% [at 10 µM]"}, {"smiles": "CC[C@]1(O)C[C@@H]2CN(CCc3c([nH]c4ccccc34)[C@@](C(=O)OC)(c3cc4c(cc3OC)N(C)[C@H]3[C@@](O)(C(=O)OC)[C@H](OC(C)=O)[C@]5(CC)C=CCN6CC[C@]43[C@@H]65)C2)C1", "max activity": "inconclusive: -79.2% [at 0.16 µM]"}, {"smiles": "Cc1ccc(-c2coc(-c3ccc(NC(=O)Cc4cccs4)cc3)n2)c(C)c1", "max activity": "inactive: 116%"}, {"smiles": "O=C(Nc1ccc(F)cc1)N1CC(=O)N2[C@H](CO)[C@H](c3ccc(-c4cccc(F)c4)cc3)[C@H]2C1", "max activity": "inconclusive: 21.6% [at 5 µM]"}]}]}
